# According to the supplement of paper PMC3334620:
# Over roughly 33,000 sequences, “E-score (-0.5 to 0.5)” has its median near -0.043; the highest 2% begin near 0.37. The list shows a part of the results.
# Biological target: T1, Upc2 (UniProt Q12151)
# T1 sequence: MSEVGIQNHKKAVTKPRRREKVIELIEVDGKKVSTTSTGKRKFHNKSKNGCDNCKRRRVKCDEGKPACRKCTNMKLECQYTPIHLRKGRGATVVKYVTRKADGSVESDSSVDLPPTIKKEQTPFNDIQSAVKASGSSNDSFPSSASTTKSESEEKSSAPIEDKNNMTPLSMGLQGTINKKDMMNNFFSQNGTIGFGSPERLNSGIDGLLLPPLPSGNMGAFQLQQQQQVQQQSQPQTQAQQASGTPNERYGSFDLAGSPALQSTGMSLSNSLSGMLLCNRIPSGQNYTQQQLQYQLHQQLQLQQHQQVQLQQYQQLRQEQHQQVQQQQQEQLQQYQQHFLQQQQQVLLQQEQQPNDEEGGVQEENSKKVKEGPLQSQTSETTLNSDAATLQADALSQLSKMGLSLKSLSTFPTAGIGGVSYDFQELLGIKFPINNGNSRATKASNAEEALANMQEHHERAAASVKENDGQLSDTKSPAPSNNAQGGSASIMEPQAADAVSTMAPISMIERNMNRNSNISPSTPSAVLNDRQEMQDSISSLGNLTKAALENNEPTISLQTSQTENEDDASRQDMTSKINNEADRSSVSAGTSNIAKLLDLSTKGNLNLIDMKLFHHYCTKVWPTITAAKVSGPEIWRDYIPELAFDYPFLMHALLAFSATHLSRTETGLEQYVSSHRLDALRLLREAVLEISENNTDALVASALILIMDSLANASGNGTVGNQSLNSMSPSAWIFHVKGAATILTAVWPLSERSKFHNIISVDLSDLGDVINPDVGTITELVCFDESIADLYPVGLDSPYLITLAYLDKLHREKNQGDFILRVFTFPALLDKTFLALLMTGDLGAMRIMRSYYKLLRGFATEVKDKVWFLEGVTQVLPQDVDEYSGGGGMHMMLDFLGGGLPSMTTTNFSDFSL
# Test: PBM E-score (8-mer binding enrichment) (E-score (-0.5 to 0.5)); higher = stronger / more preferred TF binding; most listed sequences are background and not binding sites
# Details: protein concentration: 200 nM; construct: GST-full length
# How it was run: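 For each ungapped eight-base word taken together with its reverse complement, the Universal PBM Analysis Suite assigned an E-score. Binding data came from GST-tagged yeast transcription factors, applied at about 100-200 nM, on universal all-10-mer Agilent arrays made double-stranded by primer extension. Fluorescent anti-GST marked bound protein, and scans were normalised with masliner.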
row,Sequence,PBM E-score
1,GTATTTTA,0.147
2,AGATGGCG,-0.163
3,CACCATAA,-0.0218
4,ATCATTCG,0.183
5,TACCAGCA,0.124
6,GGGAGCAC,-0.148
7,GATATAGC,0.113
8,AGATACGG,0.307
9,TAAAGGGA,-0.0549
10,AAGTCCGA,-0.105
11,GTTTCTCA,-0.0898
12,TAGAGGCA,-0.107
13,AAGCTGGA,-0.0494
14,CACCATCA,-0.133
15,AACTGGTG,-0.163
16,CAAGCCCA,-0.193
17,CAATCGAA,0.0705
18,GACACTCC,-0.166
19,CCAGGAGC,-0.0583
20,ATCCAATG,-0.334
21,CTCATGGA,-0.27
22,GGGATGTA,-0.0478
23,AAGAGACC,-0.0923
24,GTATTGAC,-0.0608
25,ACGACCGA,0.358

row,Sequence,PBM E-score
1,GGGGAAAC,-0.118
2,CCTTTTAA,0.0443
3,CTGCGATA,0.0685
4,AAGAGCCA,-0.0122
5,GACACATC,-0.036
6,AGCAGTAT,-0.0128
7,AACGTATT,0.212
8,GGGGAGAC,-0.258
9,CAGCTAAA,0.134
10,CAACATGA,-0.0461
11,GCCTTTCC,-0.245
12,GCATATCA,0.00103
13,GCGTTAAA,0.241
14,AAACCAAT,-0.135
15,GGAAACCC,-0.0863
16,AACTCAGA,-0.121
17,AAAATGCA,-0.23
18,CCTTTCCG,-0.184
19,CTTCACGC,0.0017
20,CACAGTGC,-0.158
21,ATCCACTA,-0.0471
22,CTCCCGAA,-0.129
23,AAATTTTA,0.0925
24,GCGCCACA,-0.00805
25,AGACGCCC,-0.0568

row,Sequence,PBM E-score
1,CCAAAATC,-0.0684
2,AACGTGAT,0.0242
3,CCGATTGA,-0.0444
4,CCATGGCG,-0.111
5,CTTAAAGC,0.0841
6,CCACTGGA,-0.17
7,ATCCTGAG,-0.0282
8,ATGTGCCA,-0.225
9,CCTATCCC,-0.0129
10,AATTACAG,0.103
11,CACACTGC,-0.122
12,CAGTTCCA,-0.128
13,AGTCCTAT,-0.181
14,CCTCAACA,0.005
15,CGCTCAAG,0.162
16,TCCCAACA,-0.132
17,CGAAGCAA,0.138
18,ACCCAGTC,-0.107
19,AAGGTGAA,-0.0909
20,AGTCAAGA,-0.0104
21,ATTTGCTA,-0.248
22,AAAATTTT,0.0821
23,AACCGTAG,0.103
24,GTAGAAAC,0.0447
25,CGAACCAA,0.134

row,Sequence,PBM E-score
1,AAAGTTCG,0.113
2,GGACTTAA,-0.0235
3,AAAATCAC,-0.0435
4,CCCGCGAG,-0.00772
5,AAGTAGTC,-0.0992
6,CAAGGCCG,-0.109
7,TCAGAGGA,-0.236
8,CGCTGCAG,-0.127
9,AGCCACTC,-0.12
10,GGCATAGA,-0.124
11,GATGTTAC,0.0419
12,CGAAAAAA,0.215
13,ATCCCAGC,-0.0536
14,CTTACCTC,-0.148
15,ACGCTGCG,0.102
16,GCAGACTA,-0.21
17,CATGTTCG,0.132
18,GGGATGGA,-0.11
19,TAACGTGA,-0.0783
20,CCGAAAGC,-0.0402
21,CGTCCCTC,-0.106
22,CCGTTTCC,0.134
23,AAGTGGCT,-0.115
24,ATCAAGGA,-0.144
25,ACCGACCA,0.221

row,Sequence,PBM E-score
1,AAAGATCA,0.00184
2,ACACCTAC,-0.0295
3,ATGTAAAA,0.0161
4,CCTTTCCC,-0.315
5,ACCGTCTC,0.00181
6,CCGTTGAC,0.0523
7,ATATTCAT,0.0497
8,CATACCGG,-0.156
9,CTGGTGTA,-0.135
10,CCATCTCG,0.0626
11,ACGATTGG,0.217
12,AGCGGTTA,0.0122
13,AGGGAGCG,0.00315
14,ATGCCTTC,-0.267
15,GCTCTACA,-0.0883
16,AGTACTAC,0.119
17,AGAGAAGC,-0.184
18,GGCTGGCA,-0.349
19,AAAATCAG,-0.013
20,CAAGGTAA,0.142
21,ATGGATTG,0.0337
22,CTCTTATC,0.111
23,CTTATCAA,-0.00408
24,GATTTTAA,0.0246
25,ACAACAGG,-0.0579

row,Sequence,PBM E-score
1,CTAAAAAA,-0.0251
2,ATGAGTGC,0.16
3,ATGCAAAT,0.0383
4,AACCATCA,0.0454
5,ATTCATAC,0.129
6,AGGCGACG,-0.0639
7,GGGGACCC,-0.22
8,AATCTCCT,-0.29
9,CCCGTGAC,-0.203
10,GTCGGATA,0.313
11,ACTATATC,0.00314
12,CATAGCTA,-0.138
13,ATGGAGAG,-0.313
14,CGAGGCCA,0.192
15,ACAAGGGC,-0.31
16,AGTGTAAG,-0.0723
17,CCCTAAGG,-0.302
18,AGCGGAGA,-0.176
19,TCAGTCAA,-0.0478
20,GATTGCGC,-0.156
21,CAGGGCGC,-0.187
22,CGCGGAAC,0.299
23,GGCGACAA,-0.25
24,ACAGCCAA,-0.121
25,ATATCCCA,0.038

row,Sequence,PBM E-score
1,CAGTTGTA,-0.102
2,CGTCAATC,-0.0306
3,AGAAGTAG,-0.0709
4,ATTTTGGC,-0.0172
5,ACTGGTTA,-0.0603
6,ACTTTAAC,0.0733
7,ACAGGCCA,-0.158
8,AGGTTGGA,-0.118
9,CTTTCCTA,-0.298
10,ATCGTGTG,0.0705
11,CTGTTGAA,-0.0374
12,TACCCCGA,-0.0408
13,GTACAAAA,0.31
14,ACTCAAGG,-0.259
15,ATTTCACC,-0.0598
16,CAACGTTC,0.0866
17,CCGGAAAC,0.00074
18,GGTCAGAA,-0.0416
19,GGAATTAA,0.143
20,CATACAAG,-0.192
21,CCATGAGC,-0.328
22,CTCCGAAC,-0.0473
23,ATGTGTTG,0.103
24,ACTCTCAG,-0.232
25,ACCCTGCT,-0.0867

row,Sequence,PBM E-score
1,CGTCGACA,-0.0726
2,GACAAGCC,-0.0362
3,GAGTCGAC,0.0138
4,AGAAAGTC,0.0722
5,ATAAATCG,0.181
6,ACATAGTC,0.038
7,AGGCTTGG,-0.0783
8,AACCCGCA,0.0294
9,TCTCCAGA,-0.121
10,AAGAGTGA,-0.104
11,AGAACACT,0.105
12,GCGTCATA,0.0752
13,CTACCAAA,-0.0311
14,ACCTGTGC,-0.0927
15,GGTTGCTA,-0.126
16,CGAGTGAG,0.116
17,GTCTTCGA,-0.124
18,GACTGGGA,-0.199
19,ATAGCGAG,0.106
20,GACAGGGC,-0.00491
21,CTCCCAAC,-0.0916
22,ACTCAGCA,-0.185
23,CTCGTCGC,0.0828
24,AGGTCAAA,-0.135
25,AGCCCGAT,-0.14

row,Sequence,PBM E-score
1,TGTCCCAA,-0.0626
2,ATCGTGGG,-0.0189
3,ATAGTCTG,-0.124
4,CGTATCTC,0.289
5,GACTCCTC,-0.0345
6,AGAGGCCA,-0.13
7,AGTGCGAG,0.0414
8,TCGTCTAA,0.259
9,CCGGGATC,-0.0654
10,ACCAGAGG,-0.277
11,ACAATAGG,0.0197
12,AATAAAGA,0.0304
13,AATGCATA,0.00543
14,AGCGGTAA,-0.119
15,ATAGGCAC,-0.163
16,AGTTAGCA,-0.0102
17,ACTATACG,0.478
18,ATGAACAC,0.00333
19,GCAAAGAA,-0.0229
